The other results are listed elsewhere or left out. Many values rest on one well or one pass, so single values are uncertain.

Among the data in the supplement of paper PMC4604168 (melanoma cell lines) are cell count values, retold here.

Holding throughout (experiment): cell count relative to DMSO control; melanoma cells; higher = more viable cells
Assay [1] has as its system MeWo. The conditions noted are these: library dose: low library concentration; 72 h.
The subject of assay [2] is RPMI7951. The following applies: library dose: low library concentration; 72 h.
Assay [3] has as its system RVH-421. The conditions noted are these: library dose: low library concentration; 72 h.
Assay [4] deals with SkMel28. The following applies: library dose: low library concentration; 72 h.
The subject of assay [5] is SkMel2. The following applies: library dose: low library concentration; 72 h.
The test system of assay [6] is SkMel30. The conditions noted are these: library dose: low library concentration; 72 h.
Assay [7] relates to UACC62. The conditions noted are these: library dose: low library concentration; 72 h.
The subject of assay [8] is WM115. The following applies: library dose: low library concentration; 72 h.
Assay [9] concerns WM1716. The conditions noted are these: library dose: low library concentration; 72 h.
The test system of assay [10] is WM1745. The conditions noted are these: library dose: low library concentration; 72 h.
Assay [11] relates to WM3526. The conditions noted are these: library dose: low library concentration; 72 h.
The test system of assay [12] is WM3619. The conditions noted are these: library dose: low library concentration; 72 h.
Assay [13] deals with WM451Lu. The following applies: library dose: low library concentration; 72 h.
Assay [14] deals with 501Mel. The following applies: library dose: standard library concentration; 72 h.
Assay [15] deals with A101D. The following applies: library dose: standard library concentration; 72 h.
Assay [16] has as its system A2058. The conditions noted are these: library dose: standard library concentration; 72 h.
Assay [17] concerns A375. The following applies: library dose: standard library concentration; 72 h.
Assay [18] relates to MZ2-MEL. The conditions noted are these: library dose: low library concentration; 72 h.
Assay [19] has as its system SkMel5. The conditions noted are these: library dose: low library concentration; 72 h.
Assay [20] deals with UACC257. The conditions noted are these: library dose: low library concentration; 72 h.

Turning to `O=c1[nH]nc(Sc2ncc([N+](=O)[O-])s2)n1-c1ccc2c(c1)OCCO2` + CS(=O)(=O)CCNCc1ccc(-c2ccc3ncnc(Nc4ccc(OCc5cccc(F)c5)c(Cl)c4)c3c2)o1 [lapatinib] (first compound 0.2 µM, partner dose 0.8 µM), the cell count in [1] is 97.3%; in assay [2] it was 116%; in [3], 98.8%; in [4] it was 120%; in assay [5], 105%; in assay [6], 93.8%. Moreover, the cell count amounted to 98.5% in assay [7]; 113% in assay [8]; 120% in assay [9]; 101% in [10]; 100% in assay [11]; 102% in assay [12]. This molecule gave a cell count in assay [13] of 97.3%.

As to `C[C@@H]1CCN(C(=O)CC#N)C[C@@H]1N(C)c1ncnc2[nH]ccc12` + O=S(=O)(c1ccccc1)N(CC(F)(F)F)c1ccc(C(O)(C(F)(F)F)C(F)(F)F)cc1 [T0901317] (first compound 5 µM, partner dose 7 µM), the cell count in assay [14] stood at 58.5%; in assay [15] it was 83.9%; in [16] it was 91%; in assay [17] it was 93.2%.

Consider `CC1(C)NC(=O)N(c2ccc([N+](=O)[O-])c(C(F)(F)F)c2)C1=O` [nilutamide] + O=C(Nc1ccccc1)c1cc([N+](=O)[O-])ccc1Cl [GW9662] (first compound 5 µM, partner dose 10 µM), for which the cell count in assay [14] amounted to 81.2%; in [15], 89.3%; in [16], 106%; in assay [17], 119%.

Consider `O=C(Nc1cccc(Cl)c1)Nc1ncc(CCNc2ncnc3ccsc23)s1` + COc1ccc2c(c1)CCC1C2CCC2(C)C(NCCCCCCN3C(=O)C=CC3=O)CCC12 [U73122] (first compound 0.004 µM, partner dose 2 µM), for which the cell count came out at 111% in assay [14], 62.9% in assay [15], 63.5% in [16] and 71.7% in assay [17].

As for `O=c1[nH]nc(Sc2ncc([N+](=O)[O-])s2)n1-c1ccc2c(c1)OCCO2` + COc1ccc(COc2ccc(Cc3cnc(N)nc3N)cc2OC)cc1 [GW2580] (first compound 1 µM, partner dose 5 µM), the cell count was 94.2% in [14], 104% in [15], 99.8% in [16] and 89.5% in [17].

On to `O=c1[nH]nc(Sc2ncc([N+](=O)[O-])s2)n1-c1ccc2c(c1)OCCO2` + CO[C@H]1C[C@@H]2CC[C@@H](C)[C@@](O)(O2)C(=O)C(=O)N2CCCC[C@H]2C(=O)O[C@H]([C@H](C)C[C@@H]2CC[C@@H](OCCO)[C@H](OC)C2)CC(=O)[C@H](C)/C=C(\C)[C@@H](O)[C@@H](OC)C(=O)[C@H](C)C[C@H](C)/C=C/C=C/C=C/1C [everolimus] (first compound 0.2 µM, partner dose 0.02 µM), for which the cell count was found to be 78.9% in assay [18]; 65.4% in assay [1]; 60.8% in assay [2]; 70.1% in [3]; 48.3% in assay [4]; 57.8% in [6]. For the same molecule, the cell count in assay [7] was 68.6%; in [8] it was 69.3%; in [9], 68.8%; in assay [10], 85.4%; in assay [11], 66.8%; in assay [12], 61.8%. This molecule came in with a cell count in assay [13] of 82.3%.

In the case of `Cn1cncc1[C@@](N)(c1ccc(Cl)cc1)c1ccc2c(c1)c(-c1cccc(Cl)c1)cc(=O)n2C` [tipifarnib] + N#Cc1c(O)c2c(-c3ccc(-c4ccccc4O)cc3)csc2[nH]c1=O [A769662] (first compound 0.01 µM, partner dose 2 µM), the cell count is 102% in [1]; 91.4% in assay [2]; 91.1% in assay [3]; 101% in [4]; 123% in assay [6]; 92.9% in assay [19]. Further, the cell count in [20] was 73.3%; in assay [7], 80.2%; in assay [8], 92.6%; in assay [9] it was 74.8%; in [10], 86.7%; in assay [11], 110%. In addition, the cell count in assay [12] was determined as 79.6%; in assay [13], 88.6%.

Take `O=c1[nH]nc(Sc2ncc([N+](=O)[O-])s2)n1-c1ccc2c(c1)OCCO2` + CC(=O)O[C@@]12CO[C@@H]1C[C@H](O)[C@@]1(C)C(=O)[C@H](O)C3=C(C)[C@@H](OC(=O)[C@H](O)[C@@H](NC(=O)OC(C)(C)C)c4ccccc4)C[C@@](O)([C@@H](OC(=O)c4ccccc4)[C@H]21)C3(C)C [Docetaxel] (first compound 0.2 µM, partner dose 0.0001 µM): the cell count in assay [18] was determined as 49.9%; in assay [1] it was 53.7%; in [2], 54.1%; in assay [3] it was 60.8%; in assay [4] it was 69%; in assay [6] it was 46.5%. For the same molecule, the cell count in assay [7] is 40.5%; in [8] it was 64.5%; in [9], 54.7%; in [10], 58.7%; in assay [11] it was 43.5%; in [12], 74.1%. In [13], this molecule displayed a cell count of 66.4%.

Turning to `O=C(Nc1cccc(Cl)c1)Nc1ncc(CCNc2ncnc3ccsc23)s1` + COc1cc(N2CCC(N3CCN(C)CC3)CC2)ccc1Nc1ncc(Cl)c(Nc2ccccc2S(=O)(=O)C(C)C)n1 [NVP-TAE684] (first compound 0.0008 µM, partner dose 0.08 µM), the cell count is 101% in assay [18]; 84.1% in assay [1]; 78.4% in assay [2]; 106% in assay [3]; 101% in assay [4]; 108% in [6]. The cell count in assay [19] turned out to be 79.5%; in assay [20] it was 92.8%; in assay [7], 95.6%; in [8] it was 67.3%; in assay [9], 101%; in [10] it was 80.6%. Further, the cell count in assay [11] is 98.6%; in assay [12], 93.9%; in assay [13], 103%.

As to `O=C(Nc1cccc(Cl)c1)Nc1ncc(CCNc2ncnc3ccsc23)s1` + O=C(O)c1ccc(-c2c[nH]c3ncc(-c4ccccc4)cc23)cc1C1CCCC1 [GSK650394] (first compound 0.0008 µM, partner dose 0.16 µM), the cell count in assay [1] amounted to 98.8%; in assay [2], 90%; in assay [3] it was 126%; in [4] it was 85.2%; in [6], 100%; in [19] it was 86.3%. The cell count in assay [20] came out at 124%; in assay [7], 92.8%; in [8], 82.9%; in assay [9], 112%; in [10], 85.1%; in assay [11] it was 92.7%. The cell count was found to be 88.9% in assay [12] and 108% in assay [13].
